Results: the supplement of paper PMC10369915
The list shows a part of the results. Cut-off read from the data, not from the text of the source: active = 3.2 or more and inactive = the rest. The signal is at background level for most entries.

Legend:
Assay in all cases: enrichment score (SH2-bound / input frequency) (ratio); bacterial display of known human phosphotyrosine sites (pTyr-Var adds point mutants) read by sequencing; higher = stronger binding; tyrosines were phosphorylated by kinases first
Conditions in all cases: peptide library: pTyr-Var
[1] = target: SHP2 C-SH2 domain E139D
[2] = target: SHP2 C-SH2 domain wild-type
[3] = target: SHP2 N-SH2 domain L43F
[4] = target: SHP2 N-SH2 domain T42A
[5] = target: SHP2 N-SH2 domain T52S
[6] = target: SHP2 N-SH2 domain wild-type

Measured: enrichment score
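Note: displayed peptides selected on beads carrying the immobilized SH2 domain, with library peptides lacking any tyrosine serving as negative controls.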

B1: ASS1_Y87_R86H_YF (peptide)
chain: LFEDHYLLGTS
inactive: [1] 1.38 | [2] 1.21 | [3] 1.39 | [4] 1.08 | [5] 1.06 | [6] 1.58

B2: ASS1_Y359 (peptide)
chain: LKGQVYILGRE
inactive: [1] 0.497 | [2] 0.647 | [3] 0.553 | [4] 0.644 | [5] 0.431 | [6] 0.563

B3: ASS1_Y322_G324V (peptide)
chain: FAELVYTVFWH
inactive: [1] 2.23 | [2] 1.88 | [3] 2.19 | [4] 1.69 | [5] 2.35 | [6] 2.01

B4: ATRX_Y203_C200S_YF (peptide)
chain: KNSFKYFMSDD
inactive: [1] 1.21 | [2] 0.763 | [3] 0.84 | [4] 0.791 | [5] 0.911 | [6] 0.873

B5: ASS1_Y87_YF (peptide)
chain: LFEDRYLLGTS
inactive: [1] 0.938 | [2] 0.843 | [3] 0.95 | [4] 0.943 | [5] 0.965 | [6] 0.759

B6: ATP6V1A_Y374_D371G (peptide)
chain: PAGSGYPAYLG
inactive: [1] 0.743 | [2] 0.591 | [3] 0.604 | [4] 0.501 | [5] 0.775 | [6] 0.708

B7: ATP6V0D2_Y271_G272R_YF (peptide)
chain: NVADHYRVFKP
inactive: [1] 0.544 | [2] 0.583 | [3] 0.663 | [4] 0.583 | [5] 0.606 | [6] 0.708

B8: ATM_Y332_R337H (peptide)
chain: GSRGKYSSGFH
inactive: [1] 0.774 | [2] 0.629 | [3] 0.666 | [4] 0.64 | [5] 0.789 | [6] 0.69

B9: ATP2A2_Y836_A838P (peptide)
chain: WLFFRYLPIGC
inactive: [1] 3.01 | [2] 2.49 | [3] 2.4 | [4] 2.13 | [5] 2.78 | [6] 2.33

B10: ASS1_Y322_V321M (peptide)
chain: FAELMYTGFWH
inactive: [1] 1.7 | [2] 1.56 | [3] 1.79 | [4] 1.65 | [5] 1.3 | [6] 1.65

B11: ATM_Y332 (peptide)
chain: GSRGKYSSGFR
inactive: [1] 0.426 | [2] 0.407 | [3] 0.437 | [4] 0.446 | [5] 0.427 | [6] 0.345

B12: ATRX_Y204_C200S_YF (peptide)
chain: NSFKFYMSDDI
inactive: [1] 0.829 | [2] 0.604 | [3] 0.698 | [4] 0.674 | [5] 0.665 | [6] 0.738

B13: ATM_Y54_S49C (peptide)
chain: CKQGKYLNWDA
inactive: [1] 0.874 | [2] 0.973 | [3] 0.865 | [4] 0.953 | [5] 1.04 | [6] 1.06

B14: ASS1_Y87_R86C (peptide)
chain: LYEDCYLLGTS
inactive: [1] 0.996 | [2] 0.977 | [3] 1.07 | [4] 0.882 | [5] 1.11 | [6] 1.27

B15: ASS1_Y359_R363G (peptide)
chain: LKGQVYILGGE
inactive: [1] 1.06 | [2] 1.22 | [3] 1.05 | [4] 0.923 | [5] 1.15 | [6] 1.36

B16: ATP6V1A_Y374_D371G_YF (peptide)
chain: PAGSGYPAFLG
inactive: [1] 0.864 | [2] 0.792 | [3] 0.806 | [4] 0.862 | [5] 0.95 | [6] 0.95

B17: ATRX_Y2083 (peptide)
chain: LRNIDYYRLDG
inactive: [1] 1.65 | [2] 3.04 | [3] 1.09 | [4] 0.674 | [5] 1 | [6] 1.32

B18: ATP6V0A2_Y688_R685Q (peptide)
chain: VNQSGYTLIRK
inactive: [1] 0.907 | [2] 2.01 | [3] 0.649 | [4] 0.547 | [5] 0.567 | [6] 0.567

B19: ATM_Y1415 (peptide)
chain: KSPDSYQKILL
inactive: [1] 0.729 | [2] 0.728 | [3] 0.732 | [4] 0.765 | [5] 0.812 | [6] 0.672

B20: ATRX_Y1849_Y1847C_YF (peptide)
chain: CKLCQYFLDHL
inactive: [1] 2.92 | [2] 3.09 | [3] 3.12 | [4] 2.61 | [5] 2.64 | [6] 2.4

B21: ATM_Y1415_L1420P (peptide)
chain: KSPDSYQKILP
inactive: [1] 0.781 | [2] 0.662 | [3] 0.629 | [4] 0.755 | [5] 0.727 | [6] 0.63

B22: ATRX_Y2083_Y2084H (peptide)
chain: LRNIDYHRLDG
inactive: [1] 0.707 | [2] 0.997 | [3] 1.12 | [4] 0.886 | [5] 0.876 | [6] 0.987

B23: ATP6V0D2_Y271_YF (peptide)
chain: NVADHYGVFKP
inactive: [1] 0.843 | [2] 0.552 | [3] 0.712 | [4] 0.589 | [5] 1.05 | [6] 0.763

B24: ATM_Y54 (peptide)
chain: SKQGKYLNWDA
inactive: [1] 1.08 | [2] 1.01 | [3] 1.06 | [4] 0.96 | [5] 0.952 | [6] 1.04

B25: ATM_Y2019 (peptide)
chain: EPDSLYGCGGG
inactive: [1] 0.571 | [2] 0.744 | [3] 0.597 | [4] 0.515 | [5] 0.538 | [6] 0.636

B26: ATR_Y317 (peptide)
chain: NIEPVYLNMLL
inactive: [1] 0.925 | [2] 0.873 | [3] 0.663 | [4] 0.722 | [5] 0.683 | [6] 1.03

B27: ATP2A2_Y836 (peptide)
chain: WLFFRYLAIGC
inactive: [1] 0.807 | [2] 1.05 | [3] 0.792 | [4] 0.522 | [5] 0.801 | [6] 0.856

B28: ASS1_Y87 (peptide)
chain: LYEDRYLLGTS
inactive: [1] 0.894 | [2] 1.02 | [3] 0.894 | [4] 0.814 | [5] 1.09 | [6] 1.83

B29: ASS1_Y83_R86H_YF (peptide)
chain: QSSALYEDHFL
inactive: [1] 0.932 | [2] 0.773 | [3] 0.714 | [4] 0.678 | [5] 0.799 | [6] 1.04

B30: ATP5F1B_Y269 (peptide)
chain: KVALVYGQMNE
inactive: [1] 0.844 | [2] 0.896 | [3] 0.875 | [4] 0.764 | [5] 0.972 | [6] 0.923

B31: ATRX_Y1849_Y1847C (peptide)
chain: CKLCQYYLDHL
inactive: [1] 2.25 | [2] 2.37 | [3] 2.26 | [4] 2.35 | [5] 2.32 | [6] 1.96

B32: ATM_Y2969_P2974L (peptide)
chain: PLKALYLQQRL
inactive: [1] 1.22 | [2] 1.08 | [3] 0.989 | [4] 0.964 | [5] 1.2 | [6] 1.14

B33: ATM_Y1915_M1916I (peptide)
chain: LAVVDYIRRQK
inactive: [1] 0.219 | [2] 0.353 | [3] 0.257 | [4] 0.217 | [5] 0.253 | [6] 0.369

B34: ASTL_Y279 (peptide)
chain: RVLKLYGCSPS
inactive: [1] 0.443 | [2] 0.548 | [3] 0.535 | [4] 0.474 | [5] 0.553 | [6] 0.812

B35: ASTL_Y279_K277Q (peptide)
chain: RVLQLYGCSPS
inactive: [1] 0.633 | [2] 1.06 | [3] 0.947 | [4] 0.5 | [5] 0.734 | [6] 1.1

B36: ATM_Y1915_L1910H (peptide)
chain: HAVVDYMRRQK
inactive: [1] 0.406 | [2] 0.415 | [3] 0.354 | [4] 0.392 | [5] 0.195 | [6] 0.304

B37: ASS1_Y83_S79P_YF (peptide)
chain: QPSALYEDRFL
inactive: [1] 0.961 | [2] 0.923 | [3] 0.713 | [4] 0.873 | [5] 0.73 | [6] 1.14
